From PubChem BioAssay AID1240 (Sanford-Burnham Center for Chemical Genomics, 2008)
About 800 (1.6%) of roughly 50,000 compounds showed an effect of 50% or more. The list shows a part of the results.

biological target: Bcl-2-like protein 10 (Homo sapiens) (UniProt Q9HD36); assay: TR3 peptide-Bcl-B binding displacers, biochemical primary FP assay, phenotype converters (AID 1240); settings: GST-Bcl-B / FITC-TR3 peptide fluorescence polarization; stronger effect = higher value; compound at 3.75 mg/L;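 further: 0% = Bcl-B with tracer peptide and DMSO and 100% = tracer peptide lacking Bcl-B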
UniProt Q9HD36, sequence (Q9HD36 whole entry, looked up): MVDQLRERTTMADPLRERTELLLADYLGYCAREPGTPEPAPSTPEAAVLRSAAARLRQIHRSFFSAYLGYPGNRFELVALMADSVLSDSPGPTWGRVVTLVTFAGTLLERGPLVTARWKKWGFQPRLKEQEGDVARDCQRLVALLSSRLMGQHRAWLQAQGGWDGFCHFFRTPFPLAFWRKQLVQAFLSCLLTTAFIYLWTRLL

Point of comparison: Cc1nnc(C)n1/N=C/c1cccs1, displacement 12.4%. Against it:
- CCCC(=O)Nc1cccc(NC(=O)c2ccccc2I)c1 — lower, 3.7%
- O=[N+]([O-])c1ccc(Cl)c(-n2ncnc2-c2ccc(F)cc2)c1 — lower, 0.8%
- CC1CN(C(=O)c2c(Cl)cccc2Cl)CC(C)O1 (configuration not stated) — lower, -7.8%
- CC(=O)Oc1cccc(/C=C2\C=C(c3ccc(C)cc3)OC2=O)c1 — lower, 7%
- C=C(C)C(=O)OCn1c2ccccc2c2cc([N+](=O)[O-])ccc21 — lower, 6.3%
- CC1=NN(c2ccc(S(N)(=O)=O)cc2)C(=O)/C1=C\c1ccc(-c2ccc(C(=O)OC(C)C)cc2)o1 — lower, 8.3%
- C/C(=N/N=C1/c2ccccc2C(=O)C1C(=O)C(c1ccccc1)c1ccccc1)c1cccs1 (configuration not stated) — lower, 11%
- Cc1ccc2[nH]c3c(c2c1)CCN(C)C3 — lower, -13.5%
- NS(=O)(=O)c1cccc(NC(=O)c2cc3ccccc3o2)c1 — lower, 4.5%
- O=C1/C(=C/c2ccc(Cl)c(Cl)c2)SC(=S)N1Cc1ccco1 — higher, 14.2%
- CCOC(=O)Cc1csc(NC(=O)c2cccc(F)c2)n1 — lower, -18.5%
- Cc1cc(NC(=O)c2ccccc2[N+](=O)[O-])no1 — lower, -9.2%
- COc1ccc(CCN=Cc2c(O)n(-c3c(Cl)cccc3Cl)c3ccccc23)cc1OC — lower, -6%
- Cc1ccc(-c2noc(-c3cccs3)n2)cc1 — lower, -1.6%
- Cc1cccc(OCC(=O)Nc2cccc(I)c2)c1 — lower, 0%
- O=C(N/C(=C/c1cccc(Br)c1)C(=O)N1CCCCCC1)c1ccccc1 — lower, -8.5%
- CC(C)OC(=O)c1sc2cc([N+](=O)[O-])ccc2c1Cl — lower, 11.5%
- CCC(=O)Nc1ccc(NC(=O)/C=C/c2ccc(-c3ccc(Cl)cc3Cl)o2)cc1 — lower, -14.5%
- Cc1ccc2nsnc2c1NC(=O)C(c1ccccc1)c1ccccc1 — lower, 0.6%
- O=c1c(C=NCc2ccco2)c(-c2ccccc2)[nH]n1-c1nc2ccccc2s1 — lower, -6.7%
- Cc1cc(C)nc(NC(=O)/C=C/c2ccc(Cl)cc2Cl)c1 — lower, -0.3%
- COc1ccc(C2=C/C(=C/c3ccc([N+](=O)[O-])cc3)C(=O)O2)c(OC)c1 — lower, 8.9%
- CCOC(=O)c1c(-c2ccc(C)cc2)csc1NC(=O)C1CC=CCC1C(=O)O (configuration not stated) — lower, -6%
- CCOC(=O)c1c(-n2c(C)cc(C=O)c2C)sc2c1CCCC2 — lower, 3.7%
- COc1ccc(-c2cc(C(F)(F)F)n3ncc(C(=O)NCCCN4CCOCC4)c3n2)cc1 — lower, 3.8%
- COc1ccc(Br)cc1/C=C1/SC(=S)N(Cc2ccccc2)C1=O — lower, 12.1%
- CC1=NN(c2ccccc2)C(=O)/C1=C\c1cccnc1 — lower, -8.9%
- COc1ccc(C)cc1NC(=O)C(=O)NCC1CCCO1 (configuration not stated) — lower, -15.6%
- Cc1ccccc1C(=O)Nc1sc2c(c1C(=O)N1CCN(C)CC1)CCCC2 — lower, 4.5%
- Cc1cc(NC(=O)c2ccccc2I)ccc1-c1cc2ccccc2oc1=O — higher, 14.9%
- CC(=O)C1C(c2ccccc2F)c2c(noc2C)CC1(C)O (configuration not stated) — lower, -0.1%
- NC(=O)c1c(NC(=O)CCC(=O)O)sc2c1CCCC2 — lower, 8%
- Cc1ccc(N(CC(=O)NCc2ccncc2)S(C)(=O)=O)cc1 — higher, 13.1%
- CCOC(=O)c1ccc(NC2C=CS(=O)(=O)C2)cc1 (configuration not stated) — higher, 16.1%
- CCN(CC)c1ccc(C=Nc2ccc(I)cc2)c(O)c1 — lower, 5.3%
- O=C(c1cc2cc(Br)ccc2oc1=O)N1CCCCCC1 — lower, -14.2%
- COc1ccc(NC(=O)Cc2ccc(Cl)cc2)cc1OC — lower, -0.7%
- Cc1c(N2C(=O)c3ccccc3C2=O)cccc1[N+](=O)[O-] — lower, 5.5%
- COc1cc(/C=C2\C(=O)NC(=O)N(c3cccc(C)c3)C2=O)c([N+](=O)[O-])cc1OC — lower, 4.1%
- CCOC(=O)CNC(=O)c1ccc(OC)cc1 — higher, 17.5%
- C=CCN1C(=O)/C(=C\c2ccc(-c3ccc(C)cc3Br)o2)C(=O)NC1=S — lower, -5.4%
- O=C(/C=C/c1ccc(-c2cc(Cl)ccc2Cl)o1)c1ccco1 — higher, 126%
- COc1ccc(Cl)cc1C(=O)Nc1ccc(C)c(Cl)c1 — lower, 7.1%
- Cc1nonc1NC1(O)C(=O)c2ccccc2C1=O — lower, -12.2%
- Cc1ccc(S(=O)(=O)N2CCCCC2C)cc1 (configuration not stated) — lower, -7.8%
- Nc1ccc(C(=O)Nc2ccc(N)cc2NC(=O)c2ccc(N)cc2)cc1 — lower, -14%
- Nc1cn(C2OC(CO)C(O)C(O)C2O)c(=O)[nH]c1=O (configuration not stated) — lower, 9.8%
- O=C1NC(=O)/C(=C/c2ccc(-c3ccc(O)c(C(=O)O)c3)o2)S1 — lower, -50.7%
- COc1ccc(CCNC(=O)C(=O)Nc2cc(OC)ccc2OC)cc1 — lower, -14.1%
- COc1ccc(C(NC(=O)c2ccccc2F)c2ccc(OC)c(OC)c2)cc1OC — lower, -5.6%
- Cc1cc(C)n(-c2nc3nonc3nc2Nc2cccc(C(F)(F)F)c2)n1 — lower, 6.4%
- O=C(c1ccc(Cl)cc1)c1cc2ccccc2o1 — higher, 14.8%
- COc1cc(C=O)cc(Br)c1OCc1ccc([N+](=O)[O-])cc1 — lower, -7.9%
- CCc1ccc(CNCc2ccc3c(c2)OCO3)cc1 — lower, -9.2%
- Cc1c(O)nc(Nc2nc(C)c3ccccc3n2)[nH]c1=O — lower, 9%
- COCCNC(=O)CN(c1ccc(Br)cc1)S(C)(=O)=O — lower, 2.8%
- CC1=C(C(=O)OC(C)C)C(c2ccccc2Cl)C2=C(CCCC2=O)N1 (configuration not stated) — lower, 0%
- O=C1CC(c2ccccc2)CC(O)=C1C=NCCC(c1ccccc1)c1ccccc1 (configuration not stated) — lower, 4.6%
- O=C(NN1C(=O)/C(=C\c2ccccn2)SC1=S)c1ccccc1 — lower, -15.1%
- CCOc1ccc(/C=N\NC(=O)C2CC(=O)N(c3ccc(Br)cc3)C2)cc1 (configuration not stated) — lower, -0.4%
- CCOc1cc(C=C2C(=O)NC(=O)NC2=O)ccc1OCCOCCOc1ccc(C)cc1 — lower, -0.7%
- CCOC(=O)C(C)Sc1nnnn1-c1ccccc1 (configuration not stated) — lower, 1%
- COc1ccc(/C=C/C(=O)NC2CCCCCC2)cc1OC — lower, 5.8%
- CC1=NN(C(=O)c2ccc(Cl)cc2)C(O)(c2ccc(Cl)cc2)C1 (configuration not stated) — higher, 13.4%
- O=C(c1ccccc1F)N1CCN(c2c(Cl)cccc2[N+](=O)[O-])CC1 — lower, 10.3%
- COc1ccc(/C=C(/NC(=O)c2ccc(C)cc2)C(=O)N2CCCCCC2)cc1OC — lower, -4.9%
- CN(C)/C=N/c1sc2c(c1C#N)CC(C)(C)NC2(C)C — lower, -10.7%
- O=C(O)CCCC(=O)Nc1ccc(C(=O)O)cc1 — lower, -8.5%
- O=C1/C(=C/C=C/c2ccccc2)SC(=S)N1C1CCS(=O)(=O)C1 (configuration not stated) — higher, 56.9%
- COC(=O)C1=C(O)/C(=C\c2ccc(C(=O)O)cc2)N=C1C — lower, 12.2%
- O=C(COc1ccc(Cl)cc1Br)NCc1ccccn1 — lower, -4.6%
- COc1ccc2c(c1)-c1c(ssc1=S)C(C)(C)N2C(=O)c1ccc(OC)c(OC)c1 — lower, -5.4%
- CC(C)c1ccc(N2C(=O)NC(=O)/C(=C/c3ccc(O)c(O)c3)C2=O)cc1 — lower, -20.3%
- COc1ccccc1Cc1noc(-c2ccccc2Cl)n1 — lower, 0.7%
- CCCC(=O)c1c(Nc2ccccc2)cc(C)oc1=O — lower, 0.2%
- S=C(Nc1ccccc1)Nc1ccc(Br)cn1 — higher, 16.4%
- O=C(C(=O)c1ccc(I)cc1)c1ccc(I)cc1 — lower, 0.5%
- O=C1NC(=O)C(=Cc2cccc(OCc3ccc(F)cc3)c2)C(=O)N1 — lower, 9.1%
- C=CCn1c(-c2ccncc2)n[nH]c1=S — lower, -5.3%
- COc1ccc(CNC(=O)c2cnn3c2NC(c2ccco2)CC3C(F)(F)F)cc1 (configuration not stated) — lower, 3%
- C=CCOc1ccc2ccccc2c1/C=N/NS(=O)(=O)c1ccccc1 — higher, 13.1%
- CCc1ccc(OCC(=O)Nc2ccc(C)cc2[N+](=O)[O-])cc1 — lower, 4.8%
- Cc1ccc(NCc2cccnc2)c(Br)c1 — higher, 14.4%
- COc1ccc(N2C(=O)S/C(=C\c3ccc(O)c(OC)c3)C2=O)cc1 — lower, -3.6%
- O=C(Cc1ccc(-c2ccccc2)cc1)Nc1ccc(F)cc1 — lower, -7%
- Cc1nc2ccccn2c(=O)c1N — lower, 6.2%
- COc1ccc(CNc2ccc(C)c(C)c2)c(OC)c1 — lower, 6.3%
- COc1ccc(N2C(=O)NC(=O)/C(=C/c3cccc(C(F)(F)F)c3)C2=O)cc1 — lower, -13.4%
- O=c1c2c(nc3cc(-c4ccc(Br)cc4)[nH]n13)CCS2 — lower, -9.1%
- O=c1[nH][nH]c(=O)n1/N=C/c1ccccc1O — lower, 2.2%
- Cc1ccc(CNC(=O)CN(Cc2ccccc2)S(=O)(=O)c2ccc(C)cc2)cc1 — lower, 9.2%
- COc1ccccc1NC(=O)CC1C(=O)Nc2ccccc2N1S(=O)(=O)c1ccc(C)cc1 (configuration not stated) — higher, 41.1%
- O=C(NCCCN1CCOCC1)c1nn2c(C(F)(F)F)cc(-c3cccs3)nc2c1Br — lower, 2.9%
- O=C(N=Nc1c(O)n(CN2CCCCCC2)c2ccc(Br)cc12)c1cccnc1 — lower, -0.4%
- CCN1C(=O)/C(=C\c2ccc(O)cc2O)SC1=S — lower, 3.7%
- O=C(Cn1c(NCCCO)nc2ccccc21)c1cccs1 — lower, -11.7%
- O=C(CCNc1ccc2ccccc2c1)c1ccc(Cl)c(Cl)c1 — lower, -16.2%
- COc1cc(CNC2C3CC4CC(C3)CC2C4)c([N+](=O)[O-])cc1OC (configuration not stated) — lower, 7.7%
- C=CCN1C(=O)/C(=C\c2cc(Br)c(OCc3ccc(F)cc3)c(OCC)c2)SC1=S — lower, -3.9%
- O=C(Nc1cccc(C(=O)O)c1)/C(=C/c1cccc([N+](=O)[O-])c1)NC(=O)c1ccccc1 — lower, 1.1%
- O=C(CC1CCCCC1)Nc1ccc(Br)cc1 — lower, 1.4%
- Cc1cc(C)cc(CC2CC(=O)N(c3ccc([N+](=O)[O-])cc3)C2=O)c1 (configuration not stated) — lower, 9.6%
- O=C1C2C3C=CC(C2C(=O)N1c1ccccc1)C1C(=O)N(c2ccccc2)C(=O)C31 (configuration not stated) — lower, -1.9%
- O=C(c1ccco1)N(C(=O)c1ccco1)c1cc(C(F)(F)F)ccc1Cl — lower, -3.3%
- O=C(CCC(=O)Nc1ccccc1)N/N=C/c1ccncc1 — lower, 2.1%
- CCOc1ccc(NC(=S)NC(NC(=O)c2ccccc2Br)C(Cl)(Cl)Cl)cc1 (configuration not stated) — lower, 0%
- Cc1cc(OCC(=O)Nc2cccc(F)c2)cc(C)c1Cl — lower, 4.1%
- O=C(COc1ccccc1[N+](=O)[O-])Nc1ccc2oc(-c3cccnc3)nc2c1 — lower, 3.8%
- CN1C(=O)/C(=C\c2ccc(OCc3ccccc3Cl)cc2)SC1=S — higher, 15.9%
- Cc1cccc(C(=O)Nc2cc(-c3cccc(C)c3)[nH]n2)c1 — lower, 8.8%
- Cc1ccc2[nH]c(C)c(CN3CCN(C)CC3)c(=O)c2c1 — higher, 16.8%
